# Data reported in the antibiotic and cytotoxicity screens of Wong et al. (2023).
# The other results are listed elsewhere or left out.
# Tested on: HSkMC (human skeletal muscle cells)
# Test: cytotoxicity call (relative viability < 0.9)
# Conditions: 10 µM
row,Compound,cytotoxicity call
1,CCCN(C)C[C@H]1OCCCC[C@H](C)Oc2ccc(NS(=O)(=O)c3cn(C)cn3)cc2C(=O)N([C@H](C)CO)C[C@H]1C,inactive
2,C[C@H](CO)N1C[C@H](C)[C@@H](CN(C)Cc2ccc(C(=O)O)cc2)Oc2ccc(NC(=O)C3CC3)cc2C1=O,inactive
3,CO[C@H]1CN(C)C(=O)c2cc(NS(C)(=O)=O)ccc2OC[C@H](C)N(C(=O)C2CCOCC2)C[C@H]1C,inactive
4,CCCC#Cc1ccc2c(c1)O[C@@H](CN(C)S(=O)(=O)c1cccc(F)c1)[C@H](C)CN([C@@H](C)CO)S2(=O)=O,inactive
5,O=C(C[C@H]1C[C@@H]2c3cc(NC(=O)c4ccc5c(c4)OCO5)ccc3O[C@@H]2[C@@H](CO)O1)NCCc1ccccc1,inactive
6,COc1ccc(S(=O)(=O)N2C[C@@H](O)COC[C@@H]3O[C@H](CC(=O)NCCCN(C)C)CC[C@H]32)cc1,inactive
7,C[C@@H]1CN([C@H](C)CO)C(=O)Cc2cc(NS(C)(=O)=O)ccc2O[C@@H]1CN(C)Cc1ccc(C(=O)O)cc1,inactive
8,O=C1OCC=C[C@H]2O[C@@]34C=CCN(CCN5CCOCC5)C(=O)[C@H]3N(CCO)C(=O)[C@@H]4[C@@H]12,inactive
9,C[C@@H]1CN([C@H](C)CO)C(=O)c2cccc(NC(=O)CCCCCC(=O)Nc3ccccc3N)c2O[C@@H]1CN(C)Cc1ccccc1,inactive
10,OC[C@H]1CC[C@@H]2O[C@H](CCc3ccc(C#CCc4ccccc4)cc3)[C@H](n3cc(-c4ccccc4)nn3)C[C@@H]2O1,active
11,Cc1ccc(OCCN)c(Br)c1,inactive
12,COc1ccc(S(=O)(=O)N(C)C[C@H]2Oc3c(NC(=O)c4ccncc4)cccc3C(=O)N([C@@H](C)CO)C[C@@H]2C)cc1,inactive
13,Cc1noc(C)c1S(=O)(=O)Nc1cccc2c1O[C@@H](CN(C)Cc1ccc(C(=O)O)cc1)[C@@H](C)CN([C@H](C)CO)C2=O,inactive
14,Cc1noc(C)c1NC(=O)N(C)C[C@@H]1OCCCC[C@@H](C)Oc2ccc(NC(=O)NC3CCCCC3)cc2C(=O)N([C@H](C)CO)C[C@H]1C,inactive
15,CCOC(=O)c1[nH]c(C)c(C(=O)C2=C(O)C(=O)N(CCN3CCOCC3)[C@H]2c2cccc(OC)c2OC)c1C,inactive
16,COc1ccc2c3c(n(c2c1)C)[C@@H](CO)N(C[C@]13CCN(CC1)C(=O)C1CCOCC1)C(=O)C1CCOCC1,inactive
17,CCCNC(=O)N1C[C@H]2[C@@H](c3ccccc31)[C@@H](CO)N2C(=O)CN1CCOCC1,inactive
18,C[C@@H]1CN([C@@H](C)CO)C(=O)c2cc(NC(=O)NC3CCCCC3)ccc2O[C@@H](C)CCCCO[C@H]1CN(C)Cc1ccc(C(F)(F)F)cc1,inactive
19,CCCNC(=O)N1C[C@H]2[C@@H](c3ccccc31)[C@H](CO)N2C(=O)CN1CCOCC1,inactive
20,OC[C@@H]1CN(CCN2CCOCC2)C[C@H](n2cnc3c(NC4CCC4)ncnc32)O1,inactive

row,Compound,cytotoxicity call
1,O=C1CO[C@H]2CN(S(=O)(=O)c3ccccc3)C[C@@H]2N1,inactive
2,CN1CCN(C(=O)C[C@@H]2C=C[C@H](NC(=O)c3ccc4c(c3)OCO4)[C@@H](CO)O2)CC1,inactive
3,COc1ccc(NC(=O)N(C)C[C@@H]2Oc3c(NC(=O)C4CCOCC4)cccc3C(=O)N([C@H](C)CO)C[C@H]2C)cc1,inactive
4,C[C@H]1CN([C@@H](C)CO)C(=O)c2cc(NC(=O)Nc3ccc(F)cc3)ccc2O[C@H]1CN(C)C(=O)Nc1ccc(C(F)(F)F)cc1,inactive
5,C[C@H](CO)N1C[C@H](C)[C@H](CN(C)S(=O)(=O)c2cn(C)cn2)Oc2ccc(NC(=O)NC3CCCCC3)cc2C1=O,inactive
6,C[C@@H]1CCCCO[C@H](CN(C)Cc2ccncc2)[C@@H](C)CN([C@H](C)CO)C(=O)c2cc(NC(=O)Nc3ccccc3)ccc2O1,inactive
7,C[C@@H]1CCCCO[C@@H](CN(C)C(=O)C2CCCCC2)[C@H](C)CN([C@@H](C)CO)C(=O)c2cc(NC(=O)CCCCCC(=O)Nc3ccccc3N)ccc2O1,inactive
8,Cc1noc(C)c1NC(=O)N(C)C[C@@H]1Oc2cc(C#CCN(C)C)ccc2S(=O)(=O)N([C@@H](C)CO)C[C@@H]1C,inactive
9,CC(C)(O)c1cn(-c2nonc2N)nn1,inactive
10,CO[C@H]1CN(C)C(=O)c2cc(NC(=O)Nc3cccc(F)c3)ccc2OC[C@H](C)N(C(=O)Nc2c(C)noc2C)C[C@@H]1C,inactive
11,C[C@H]1CN([C@@H](C)CO)C(=O)c2cccc(NC(=O)Nc3ccc(C(F)(F)F)cc3)c2O[C@@H]1CN(C)Cc1ccc(C(=O)O)cc1,inactive
12,c1ccc(Oc2ccccc2)cc1,inactive
13,NC1CONC1=O (stereo not given),inactive
14,C[C@H]1CN([C@@H](C)CO)S(=O)(=O)c2ccc(-c3ccc(F)cc3)cc2O[C@H]1CN(C)C(=O)C1CCOCC1,inactive
15,C[C@H]1CN([C@@H](C)CO)C(=O)c2cccc(NC(=O)Nc3cccc4ccccc34)c2O[C@H]1CN(C)C(=O)Nc1ccc2c(c1)OCO2,inactive
16,COc1c(OCCCN2CCOCC2)ccc2c1N=C(NC(=O)c1cnc(N)nc1)N1CCN=C21,inactive
17,C[C@H]1CN([C@@H](C)CO)C(=O)c2cc(N(C)C)ccc2O[C@@H]1CN(C)S(C)(=O)=O,inactive
18,C[C@@H]1CCCCO[C@@H](CN(C)S(=O)(=O)c2ccc(F)cc2)[C@@H](C)CN([C@@H](C)CO)C(=O)c2cc(NC(=O)Nc3ccc4c(c3)OCO4)ccc2O1,inactive
19,COc1cccc(S(=O)(=O)N[C@@H]2C=C[C@H](CC(=O)NC3CCC3)O[C@@H]2CO)c1,inactive
20,C[C@@H]1CN([C@@H](C)CO)C(=O)c2cc(NC(=O)c3ccccc3)ccc2O[C@@H](C)CCCCO[C@@H]1CN(C)C(=O)CCC(F)(F)F,inactive
